# Measurements: the RNAGym collection of RNA variant scans (doi:10.7554/elife.90254)
# The source gives no read counts; variants with many changes may rest on few reads.
# B1: LINE1-mini (parent)
# chain: GGCAGAGCUCAACACAGCGUGGCAAAGUGGCUGUGGCUAGACUGCC
# Variants of: B1
# Experiment: self-cleavage, relative activity (ratio to wild type); higher = more cleavage; in vitro, sequencing; the parent is a self-cleaving ribozyme
row,Variant,self-cleavage
1,G21U G22A C23A C42A G44C,0.08
2,G22A A24C C46G,0.17
3,G21A G44U C46G,0.13
4,G22A A26C A41C,0.01
5,G22A C23A G35A,0.15
6,G21U C31A A41G,0.08
7,G21U C37A C45G C46G,0.05
8,G21C A26C A39U C46U,0.21
9,G21U G22U G27C U34A C42A,0.56
10,G22A A24G U34G,0.41
11,G22A C23G U28G G29A C37A,0.03
12,G21U G22U A39U,2.52
13,G21C A25U U32A G33U G36A G40A,0.12
14,G21A G27A U28G G29A C37G,0.31
15,U20G U28C G29U C31U A39C,0.21
16,G21U A25U G27A U38C C46A,0.02
17,G21A A25C C37U C45A,0.1
18,G21A U38C A41C C42U,0.06
19,G22A C31U U43A,0.02
20,G21C C31U C46G,0.08
21,G22A A25U G29U,1.87
22,G21U G36C G44U,0.05
23,G22A A25C G27U G40U,0.08
24,G21U U32G G44A,0.13

row,Variant,self-cleavage
1,G22A G27A G33U A41C,0.09
2,G21C C37A C46U,0.05
3,G21C C23U C45G,0.58
4,G21U C23A A24C,1.33
5,G21U C23A A25U G33U,0.1
6,G21C G29A U32C,1.26
7,G22A A24U C37U C42G,0.02
8,G21C A25U A26G,0.74
9,U20G G36U U43A,0.02
10,G21U G22A A39G,0.02
11,G21C G27C G33U G40C C46U,0.04
12,G22A A26C U34A G36U,0.04
13,G22A A26U C31G A41U,0.07
14,G22A C23A G33A,0.48
15,G21A A25U G30U,0.98
16,G22A C23U U28A G29U,0.13
17,G21C G30U G35A G40U A41U C46A,0.02
18,G21U U28G C45A,0.18
19,G21C G36U C42G,0.02
20,G21A C23U U28A,0.58
21,G21A A26C A39C,0.25
22,G21A G30A C46U,2.02
23,G21A G22C G30A C37G,0.03
24,G21A G22U G27C C46G,0.82

row,Variant,self-cleavage
1,G21U C23G G44A,0.23
2,G21A U32G C37G U38A,0.04
3,G21U G29U G35C G40U G44C,0.02
4,G21U G22U G30U,1.85
5,G21A G30A G35U,0.08
6,G21C G22U C23A C45G,0.83
7,G21C G33U G35C G44A,0.15
8,G22A C31A A39G,0.04
9,G21A A25G C42U,0.7
10,G21C G44U C46U,0.07
11,G22A A25U C31U U32G,0.07
12,G22A A25C G40U C42A C46G,0.04
13,G21A A26C C46A,1.27
14,G21U U43C G44C,0.07
15,G21A G29U C45A,0.34
16,G21U U38A G44A,0.13
17,G22A A25U G44A,0.4
18,G21A G22A G36A A41U G44U,0.03
19,G21U G35A C46U,0.24
20,G21A A24U C37A A41G,0.57
21,G21C A24U C31G,0.09
22,G22A A25G C31U,0.25
23,G22A A39C C46U,0.1
24,G22A A25C G35C,0.03

row,Variant,self-cleavage
1,G21A U32C A39G,0.08
2,G21C G22C G27A G36A G40A G44U,0.15
3,G21U G33C C46G,0.04
4,G21C G30C C31A G40U C46A,0.04
5,G22A C31A G44U C45U,0.03
6,G21A U28G A39G,0.35
7,G21C A26G G36U,0.02
8,G22A C23A U34C G40U,0.09
9,G21A A25C G30A,1.64
10,G22A C37U A39C,0.07
11,G21C G30A G33C,0.03
12,G21U U28C U38C A39U,0.54
13,G22A A26G U28G G36A A39U,0.27
14,G22A G27A A41G,0.74
15,G21U A25C U38A,0.22
16,G21U C23G U28A G35C,0.02
17,G21A G22C G30A G35A,0.12
18,G21A G27C U28C G33C G40U,0.01
19,G21C C23A C42A,0.27
20,G21A C23A G33C,0.04
21,G21C G22A G35C A39G C46G,0.07
22,G21A C23G G36A U38G C46G,0.01
23,G21A G35U U38G G44A,0.01
24,G21C C31U G33U C37A G44A,0.13

row,Variant,self-cleavage
1,G22A C37G G40A,0.04
2,G21U C37U C42A,0.01
3,G21U C37G G40U,0.07
4,G21A A26U U32A U34G,0.01
5,G21C U28G C45G,0.1
6,G21A C23G G33C A41U,0.06
7,G21A C31G U34A G44U,0.03
8,G21U C23U A25U C45U,2.14
9,G21U C23A A26C C31G C37U C46A,0.01
10,G21C C31A G36C A41U,0.12
11,G21A C23U A25C G27A,0.91
12,G22A C23U C31G,0.04
13,G21U G22U C45U,1.7
14,G21U G22A A26G,0.67
15,G21A G35A G40U,0.05
16,U20G U28A C37G,0.01
17,G21C C23G C42A,0.12
18,G22A C23G C31U,0.24
19,G21U G33C G40C C45A,0.01
20,G21U A24G U43C,0.2
21,G21U G29A U43C,0.05
22,G21A G33C A41C,0.03
23,G21A U28A G29U G35U,0.32
24,G21U C23A G40U,0.05

row,Variant,self-cleavage
1,G21U U28G G33C,0.03
2,G21A A25G G36U C42G,0
3,G21U U28A A39G G40A,0.08
4,G21U G36A A41U,0.21
5,G21A G29U C31U,0.13
6,G21C G35U G44U,0.05
7,G21U C31U G40A U43A,0.01
8,G21A A26U U32G G35A G36C,0.02
9,G21U G22A G30U,1.66
10,G21C C31G G44C,0.02
11,G22A C31A C37A A41U,0.08
12,G21A C31U U34A,0.02
13,G21U C23U C31U,0.57
14,G21A U28C G33C C42U,0.1
15,U20G U34C U43C,0.02
16,G22A C31A C37U,0.03
17,G21C G35U C37U,0.06
18,G21U G29U G35U C37G G40A,0
19,G21U C23A G29C,0.4
20,G22A C31G G44A,0.04
21,G21C G27C U43A,0.09
22,G21U U43C C45U,0.08
23,G22A A24U C31G,0.08
24,G21A G30A A41C,0.15

row,Variant,self-cleavage
1,G21U A25C U28G G30U G36U,0.04
2,G22A C23U G27A,0.26
3,G21A G36C C42U,0.08
4,G22A C23G G36U U43A,0.18
5,G21A G22A A26G A41U,0.68
6,G21U G22U G40U U43A,0.03
7,G22A C31G C42U,0.03
8,G21U A24U U34C C46A,0.2
9,G22A C37G C45U,0.04
10,G21A C23A G44A,0.27
11,G21C C42G G44U,0.03
12,G21U A26U C46A,1.08
13,G21C U28A A41C U43G,0.01
14,G21U G27C U34A A41C C42A,0.02
15,G21C A24C U34A G35A G36U,0.13
16,G21C U32A G35U,0.07
17,G21A U32G G35A C46A,0.06
18,G22A A26C G29U C46G,0.31
19,G21U G35C G40C C42G,0.05
20,G21U G29C U38A,0.02
21,G22A A25U G29C A41C,0.04
22,G21U A39G A41U,0.04
23,G21A G29A G30A,1.15
